Source: the supplement of paper PMC4967469
The IC50 comes from the fitted curve, where viability falls to half of the control; where the fit passes the top or lowest dose, that dose stands as a limit. AUC, from the same fit, is the share of area under the viability curve across the 256-fold dose range; the more sensitive the line, the further below 1. For part of these data: An inferred top dose comes from the curve model; the source does not state it.

Legend:
Assay in all cases: Viability of human cancer cell lines after 72 h of drug (GDSC screen)
AG-014699 = compound: CNCc1ccc(-c2[nH]c3cc(F)cc4c3c2CCNC4=O)cc1 [AG-014699]; conditions: top dose 5 µM; top dose inferred
Description: (§1)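 Human cancer cell lines in 384-well plates, medium with 10% serum, drug for 72 h over a 256-fold dose range (nine 2-fold or five 4-fold steps up to the top dose). Adherent lines were fixed and stained with the nucleic acid dye Syto60, suspension lines read with resazurin; signal relative to control wells, capped at 0 and 100%. One two-parameter sigmoid per drug and line, fitted in a mixed model over all curves with the slope shared within a line.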

Gefitinib = compound: COc1cc2ncnc(Nc3ccc(F)c(Cl)c3)c2cc1OCCCN1CCOCC1 [Gefitinib]; conditions: top dose 0.5 µM
Description: as §1

Vinorelbine = compound: CCC1=C[C@@H]2CN(C1)Cc1c([nH]c3ccccc13)[C@@](C(=O)OC)(c1cc3c(cc1OC)N(C)[C@H]1[C@@](O)(C(=O)OC)[C@H](OC(C)=O)[C@]4(CC)C=CCN5CC[C@]31[C@@H]54)C2 [Vinorelbine]; conditions: top dose 0.064 µM; top dose inferred
Description: as §1

NU-7441 = compound: O=c1cc(N2CCOCC2)oc2c(-c3cccc4c3sc3ccccc34)cccc12 [NU-7441]; conditions: top dose 2 µM; top dose inferred
Description: as §1

Phenformin = compound: N=C(N)NC(=N)NCCc1ccccc1 [Phenformin]; conditions: top dose 4000 µM; top dose inferred
Description: as §1

WHI-P97 = compound: COc1cc2ncnc(Nc3cc(Br)c(O)c(Br)c3)c2cc1OC [WHI-P97]; conditions: top dose 10.24 µM; top dose inferred
Description: as §1

EHT 1864 = compound: O=c1cc(CN2CCOCC2)occ1OCCCCCSc1ccnc2cc(C(F)(F)F)ccc12 [EHT 1864]; conditions: top dose 10 µM; top dose inferred
Description: as §1

QL-XI-92 = compound: C=CC(=O)Nc1cc(NC(=O)c2ccc(C)c(NC(=O)c3ccno3)c2)cc(C(F)(F)F)c1 [QL-XI-92]; conditions: top dose 10.24 µM; top dose inferred
Description: as §1

XL-184 = compound: COc1cc2nccc(Oc3ccc(NC(=O)C4(C(=O)Nc5ccc(F)cc5)CC4)cc3)c2cc1OC [XL-184]; conditions: top dose 5.12 µM; top dose inferred
Description: as §1

Row | Cell Line | AUC (AG-014699) | IC50 (AG-014699) [µM] | AUC (Gefitinib) | IC50 (Gefitinib) [µM] | AUC (Vinorelbine) | IC50 (Vinorelbine) [µM] | AUC (NU-7441) | IC50 (NU-7441) [µM] | AUC (Phenformin) | IC50 (Phenformin) [µM] | AUC (WHI-P97) | IC50 (WHI-P97) [µM] | AUC (EHT 1864) | IC50 (EHT 1864) [µM] | AUC (QL-XI-92) | IC50 (QL-XI-92) [µM] | AUC (XL-184) | IC50 (XL-184) [µM]
1 | NCI-H1437 (lung adenocarcinoma, adherent) | 0.954 | > 5 | 0.974 | > 0.5 | 0.519 | 0.00452 | 0.944 | > 2 | 0.685 | 841 | 0.974 | > 10.2 | 0.949 | > 10 | 0.932 | > 10.2 | 0.97 | > 5.12
2 | NCI-H1563 (lung adenocarcinoma, adherent) | 0.985 | > 5 | 0.979 | > 0.5 | 0.686 | 0.0148 | 0.952 | > 2 | 0.681 | 885 | 0.917 | > 10.2 | 0.949 | > 10 | 0.839 | 9.02 | 0.965 | > 5.12
3 | NCI-H1568 (lung adenocarcinoma, adherent) | 0.961 | > 5 | 0.956 | > 0.5 | 0.596 | 0.00785 | 0.968 | > 2 | 0.966 | > 4000 | 0.922 | > 10.2 | 0.906 | > 10 | 0.958 | > 10.2 | 0.982 | > 5.12
4 | NCI-H1623 (lung adenocarcinoma, adherent) | 0.963 | > 5 | 0.828 | 0.407 | 0.787 | 0.0348 | 0.965 | > 2 | 0.846 | 3930 | 0.912 | > 10.2 | 0.918 | > 10 | 0.985 | > 10.2 | 0.97 | > 5.12
5 | NCI-H1651 (lung adenocarcinoma, adherent) | 0.778 | 2.19 | 0.984 | > 0.5 | 0.87 | > 0.064 | 0.982 | > 2 | 0.712 | 1050 | 0.986 | > 10.2 | 0.859 | 9.34 | 0.987 | > 10.2 | 0.981 | > 5.12
6 | NCI-H1688 (small cell lung carcinoma, adherent) | 0.976 | > 5 | 0.986 | > 0.5 | 0.688 | 0.0142 | 0.964 | > 2 | 0.677 | 824 | 0.917 | > 10.2 | 0.921 | > 10 | 0.967 | > 10.2 | 0.902 | > 5.12
7 | NCI-H1693 (lung adenocarcinoma, adherent) | 0.892 | > 5 | 0.904 | > 0.5 | 0.976 | > 0.064 | 0.957 | > 2 | 0.829 | > 4000 | 0.861 | > 10.2 | 0.938 | > 10 | 0.964 | > 10.2 | 0.924 | > 5.12
8 | NCI-H1755 (lung adenocarcinoma, adherent) | 0.923 | > 5 | 0.972 | > 0.5 | 0.712 | 0.0177 | 0.93 | > 2 | 0.468 | 201 | 0.738 | 3.47 | 0.954 | > 10 | 0.771 | 4.56 | 0.539 | 0.417
9 | NCI-H1781 (lung adenocarcinoma, adherent) | 0.989 | > 5 | 0.972 | > 0.5 | 0.665 | 0.0115 | 0.989 | > 2 | 0.989 | > 4000 | 0.989 | > 10.2 | 0.948 | > 10 | 0.883 | > 10.2 | 0.926 | > 5.12
10 | NCI-H1792 (lung adenocarcinoma, adherent) | 0.952 | > 5 | 0.969 | > 0.5 | 0.814 | 0.0307 | 0.982 | > 2 | 0.689 | 798 | 0.984 | > 10.2 | 0.989 | > 10 | 0.984 | > 10.2 | 0.959 | > 5.12
11 | NCI-H1944 (lung adenocarcinoma, adherent) | 0.985 | > 5 | 0.955 | > 0.5 | 0.542 | 0.00523 | 0.972 | > 2 | 0.477 | 216 | 0.946 | > 10.2 | 0.931 | > 10 | 0.91 | > 10.2 | 0.952 | > 5.12
12 | NCI-H2009 (lung adenocarcinoma, adherent) | 0.987 | > 5 | 0.977 | > 0.5 | 0.645 | 0.0103 | 0.976 | > 2 | 0.669 | 761 | 0.977 | > 10.2 | 0.969 | > 10 | 0.983 | > 10.2 | 0.957 | > 5.12
13 | NCI-H2023 (lung adenocarcinoma, adherent) | 0.982 | > 5 | 0.947 | > 0.5 | 0.879 | > 0.064 | 0.952 | > 2 | 0.906 | > 4000 | 0.975 | > 10.2 | 0.975 | > 10 | 0.976 | > 10.2 | 0.967 | > 5.12
14 | NCI-H2052 (mesothelioma, adherent) | 0.961 | > 5 | 0.98 | > 0.5 | 0.85 | > 0.064 | 0.977 | > 2 | 0.962 | > 4000 | 0.968 | > 10.2 | 0.841 | > 10 | 0.965 | > 10.2 | 0.973 | > 5.12
15 | NCI-H2087 (lung adenocarcinoma, semi-adherent) | 0.967 | > 5 | 0.986 | > 0.5 | 0.645 | 0.0104 | 0.974 | > 2 | 0.537 | 317 | 0.983 | > 10.2 | 0.953 | > 10 | 0.922 | > 10.2 | 0.935 | > 5.12
16 | NCI-H2172 (non-small cell lung carcinoma, adherent) | 0.983 | > 5 | 0.974 | > 0.5 | 0.932 | > 0.064 | 0.958 | > 2 | 0.809 | 3080 | 0.97 | > 10.2 | 0.868 | > 10 | 0.975 | > 10.2 | 0.951 | > 5.12
17 | NCI-H2227 (small cell lung carcinoma, semi-adherent) | 0.937 | > 5 | 0.986 | > 0.5 | 0.968 | > 0.064 | 0.955 | > 2 | 0.98 | > 4000 | 0.978 | > 10.2 | 0.986 | > 10 | 0.914 | > 10.2 | 0.887 | > 5.12
18 | NCI-H2291 (lung adenocarcinoma, adherent) | 0.944 | > 5 | 0.978 | > 0.5 | 0.98 | > 0.064 | 0.946 | > 2 | 0.979 | > 4000 | 0.981 | > 10.2 | 0.97 | > 10 | 0.982 | > 10.2 | 0.984 | > 5.12
19 | NCI-H2347 (lung adenocarcinoma, adherent) | 0.95 | > 5 | 0.978 | > 0.5 | 0.751 | 0.0251 | 0.914 | > 2 | 0.806 | 2570 | 0.98 | > 10.2 | 0.968 | > 10 | 0.972 | > 10.2 | 0.839 | 4.61
20 | NCI-H2405 (lung adenocarcinoma, adherent) | 0.919 | > 5 | 0.959 | > 0.5 | 0.834 | 0.0483 | 0.976 | > 2 | 0.854 | 3700 | 0.948 | > 10.2 | 0.973 | > 10 | 0.953 | > 10.2 | 0.942 | > 5.12
21 | NCI-H2444 (non-small cell lung carcinoma, adherent) | 0.988 | > 5 | 0.988 | > 0.5 | 0.928 | > 0.064 | 0.978 | > 2 | 0.908 | > 4000 | 0.986 | > 10.2 | 0.988 | > 10 | 0.987 | > 10.2 | 0.963 | > 5.12
22 | NCI-H2452 (mesothelioma, adherent) | 0.95 | > 5 | 0.981 | > 0.5 | 0.966 | > 0.064 | 0.957 | > 2 | 0.934 | > 4000 | 0.984 | > 10.2 | 0.929 | > 10 | 0.984 | > 10.2 | 0.984 | > 5.12
23 | NCI-H3122 (lung adenocarcinoma, adherent) | 0.986 | > 5 | 0.982 | > 0.5 | 0.397 | 0.00206 | 0.982 | > 2 | 0.656 | 689 | 0.98 | > 10.2 | 0.987 | > 10 | 0.974 | > 10.2 | 0.948 | > 5.12
24 | NUGC-4 (stomach, adherent) | 0.988 | > 5 | 0.859 | 0.418 | 0.801 | 0.0314 | 0.977 | > 2 | 0.978 | > 4000 | 0.577 | 1.04 | 0.974 | > 10 | 0.987 | > 10.2 | 0.87 | 4.8
